# From PubChem BioAssay AID1466 (National Center for Advancing Translational Sciences (NCATS), 2008)
# Hit rate of the full screen: of about 200,000 compounds, about 10 (0.005%) were called active. The inconclusive results got no clear call from the source; some entries with a clear call stand among them for comparison. Calls come from the whole dose curve; as a rule, active = well fitted inhibition curve with a large enough effect; inconclusive = small, poorly fitted or top-dose-only effect, or effect the other way, or another doubt; inactive = no such curve, though single readings can be large or run the other way. No potency is given beside an inconclusive call; the fits are too rough. Peptide text beside a SMILES is read from it. * marks the point of attachment. Boc = CC(C)(C)OC(=O)*; OBn = c1ccc(CO*)cc1
# Biological target: Lysosomal alpha-glucosidase (Homo sapiens) (UniProt P10253)
# Assay: qHTS Assay for Inhibitors of Human alpha-Glucosidase as a Potential Chaperone Treatment of Pompe Disease;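 for activity change, negative = inhibition: plate controls were uninhibited enzyme wells for no effect and no-enzyme background for full effect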
# Settings: purified human GAA, 4-MU-alpha-glucoside fluorescence; activity change, negative = inhibition: at 76.9 µM (top of the series) unless noted
# Procedure, shortened: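 Human enzyme at 4 nM with 400 uM 4-methylumbelliferyl-alpha-D-pyranoside, citrate/phosphate buffer pH 5.0, 0.005% Tween-20, 20 min at room temperature. Compounds up to 77 uM. 4-MU fluorescence (Ex 365/Em 440) read after NaOH/glycine stop; AC50 from Hill fit.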
# Potency is the fitted concentration of half-maximal effect; tags give direction and shape of the fitted curve.
SMILES,"activity change, negative = inhibition",Potency
Cc1ccc(C(=O)N/C(=C/c2ccc(-c3cccc([N+](=O)[O-])c3)o2)C(=O)NCCCN(C)C)cc1,inconclusive: 9.57% [activator],
O=C1CC(c2ccc(Cl)c(Cl)c2)CC(O)=C1C=NCCN1CCNCC1 (stereo unspecified),,"inconclusive [inhibitor, full curve]"
COC(=O)c1c(N)n(CCCN2CCOCC2)c2nc3ccccc3nc12,,"inconclusive [activator, partial curve]"
Cc1ccc(OCC(=O)N/N=C/c2c[nH]c3ccccc23)c([N+](=O)[O-])c1,inconclusive: -15.8% [inhibitor],
COC(=O)/C(C#N)=C1/C=Cc2ccccc2N1C,,"inconclusive [inhibitor, full curve]"
CCN(CC)CCNC(=O)c1cc(-c2ccco2)nc2ccccc12,,"inconclusive [activator, single point]"
O=C(NCc1ccc2c(c1)OCO2)c1nnc(Cc2ccc(Cl)cc2)o1,inconclusive: -15.2% [inhibitor],
COc1ccc(CCN(C(=O)c2ccco2)C(C(=O)NC2CCCC2)c2ccncc2)cc1OC (stereo unspecified),inconclusive: 7.67% [activator],
Fc1ccccc1COc1ccc(Br)cc1CNCc1cccnc1,inconclusive: 3.43% [activator],
C/C(CC(=O)Nc1ccc(N(C)C)cc1)=N\NC(=O)C(=O)NCc1ccccc1,,"inconclusive [inhibitor, partial curve]"
Cn1cc(CN2CCCC(C(=O)c3nccn3C)C2)c(-c2cccc(Cl)c2)n1 (stereo unspecified),,"inconclusive [inhibitor, single point]"
CCc1ccccc1NC(=O)Cn1nnc(-c2cccs2)n1,,"inconclusive [inhibitor, single point]"
COC(=O)C1=CN(CC2CCCO2)C=C(C(=O)OC)C1c1cccc(O)c1 (stereo unspecified),,"inconclusive [activator, partial curve]"
O=c1nc2n(Cc3ccccc3)c3ccccc3cc-2c(=O)[nH]1,,"inconclusive [activator, partial curve]"
CCN(CC)C(=O)CSc1nc(C)cc(-c2cccs2)c1C#N,,"inconclusive [inhibitor, single point]"
O=C(Nc1ccc(F)cc1)c1cccnc1NCCc1ccccc1,,"inconclusive [inhibitor, single point]"
COc1cccc(-n2c(SCC(=O)c3c[nH]c4ccccc34)nc3ccccc3c2=O)c1,,"inconclusive [inhibitor, full curve]"
Cc1cnc(NC(=O)c2nn(C)cc2[N+](=O)[O-])s1,inconclusive: 2.84% [activator],
Fc1ccc(/C=C\c2nccc3c2[nH]c2ccccc23)cc1,,"inconclusive [activator, partial curve]"
Cc1ccc(NC(=O)c2ccccc2)cc1-n1cnnn1,inconclusive: 26.1% [activator],
CCS(=O)(=O)Nc1c(C(=O)OC)[nH]c2ccccc12,,inactive

SMILES,"activity change, negative = inhibition",Potency
Cc1nn(-c2ccc(Cl)cc2)c(=O)c2ccccc12,,"inconclusive [inhibitor, single point]"
CC(C)C(NC(=O)OC(C)(C)C)C(=O)NC(CCC(=O)OCc1ccccc1)C(N)=O (stereo not drawn) (Boc-Val-Glu(OBn)-NH2; configuration not given here),inconclusive: 15.9% [activator],
O=C(CC1C(=O)NCCN1C(=S)Nc1ccccc1)Nc1ccc2c(c1)OCCO2 (stereo unspecified),,"inconclusive [inhibitor, partial curve]"
Cc1cc(C)nc(-n2nc(C)cc2NC(=O)CN2CCCC2)n1,,inactive
Cn1c(=O)c2c(nc(N3CCN(c4ccccc4)CC3)n2CCCc2ccccc2)n(C)c1=O,inconclusive: 16.3% [activator],
CCOC(=O)CN=C(NS(=O)(=O)c1ccc(Cl)cc1)c1ccccc1,,"inconclusive [inhibitor, single point]"
CC(=O)/C(N=Nc1ccc(SC(F)F)cc1)=C(\C)O,,"inconclusive [inhibitor, single point]"
CCC(=O)Nc1cccc2ccccc12,inconclusive: 4.61% [activator],
N#Cc1c(N2CCCC(O)C2)nc(N)c2c(N)nc3c(c12)CC(=O)N3C12CC3CC(CC(C3)C1)C2 (stereo unspecified),,"inconclusive [inhibitor, single point]"
CCN1CCCc2cc(CN(CCN3CCOCC3)C(=S)Nc3cccc(C)c3)ccc21,,inactive
CC(C)(C)C(=O)N1CCn2c1nc1ccccc12,inconclusive: 19.1% [activator],
CCOC(=O)c1ccc2[nH]c3c(c2c1)CCCC3C(=O)OCC (stereo unspecified),,"inconclusive [inhibitor, full curve, poor fit]"
Cc1nc2ccc(NC(=O)NCCO)cc2s1,,"inconclusive [inhibitor, partial curve, poor fit]"
O=c1nc(N2CCOCC2)ccn1-c1nc(-c2ccccc2)sc1-c1ccccc1,,"inconclusive [inhibitor, partial curve, poor fit]"
O=C(c1ccc(Br)cc1)N(Cc1nc2ccccc2c(=O)[nH]1)C1CCCC1,inconclusive: 15.3% [activator],
Cc1c(C(=O)NCc2ccccc2)oc2ccc(S(=O)(=O)N3CCC4(CC3)OCCO4)cc12,,"inconclusive [inhibitor, partial curve]"
CCCCCCc1cc2cc(C(=O)NCc3ccccc3)c(=N)oc2cc1O,,"inconclusive [activator, partial curve]"
CC(C)CCNC(=O)NC(=O)COC(=O)c1cc(S(=O)(=O)N2CCOCC2)ccc1N1CCCCC1,,"inconclusive [inhibitor, single point]"
COC(=O)c1ccc(NC(=O)CN2CCN(c3cccc(Cl)c3)CC2)cc1,,"inconclusive [inhibitor, partial curve, poor fit]"
CCCCNS(=O)(=O)c1ccc2nc(-c3cccs3)cc(C(=O)NCC(OC)OC)c2c1,,"inconclusive [activator, partial curve]"
